The other results are listed elsewhere or left out. At the low end of the ranking the order means little.
The sequences below were run against SIX1-Q177R homeodomain (UniProt Q15475) (assay: universal protein binding microarray). Details: Universal all-10-mer PBM (8x60K, AMADID 030236), 300 nM GST-tagged protein, Alexa Fluor 488 anti-GST; buffer, salt, pH and temperature not stated; high values mean tight binding; most listed sequences are background and not binding sites; double strand, one strand shown.

Sequence | binding signal [E-score]
CTGTCTTC | -0.281
ACCTGCGC | 0.0978
AGTCCAAC | -0.0677
ATACACAG | 0.187
AGAGGAGG | -0.182
AAAATCAG | 0.0139
GCCATATA | 0.109
TAAGTGCA | -0.016
TAAAGGCA | -0.165
ACATGTCT | -0.161
ATACTCCG | 0.195
CAACGTGA | -0.115
CTGAGAGC | -0.0686
ACGCCTAA | 0.0755
ATGTGCCG | -0.0987
CCCGGCCG | 0.0377
GGCGAAAC | -0.0939
GGGCTACC | -0.154
CCGGAGTC | 0.224
CGGTGACC | 0.0172
ACTAAGTG | 0.0303
ATGACAGC | -0.254
CCTCGAGC | -0.0393
ACGCCTTA | 0.099
ACGGTTCA | -0.0149

Sequence | binding signal [E-score]
TTATGCAA | -0.00447
CGCGGTAC | 0.103
TACTGCGA | -0.135
GCTATAAC | -0.00284
AGCTGCAC | 0.0226
ACGGGGAC | 0.00281
GAGGTAAC | 0.00303
AAGAAAGC | -0.247
TGAGAAAA | -0.291
GATATCAC | 0.0237
CCTTCGTC | -0.0832
CGAGATCG | -0.12
CGGTCGTA | 0.0392
GGCATACC | -0.124
ATGCTTTG | -0.204
CGACTCAA | 0.0383
AAAGAATA | -0.0742
GGTACCCA | 0.0105
AATACAAT | -0.182
TACCCTGA | 0.185
AAATTAAG | 0.0314
ATCCGCAC | 0.171
GTGGCGAA | -0.122
GGATTAAC | -0.137
CAATATGC | -0.0635

Sequence | binding signal [E-score]
ATTCGGAG | -0.0206
CATGACTC | 0.0678
CATCGCGC | -0.264
AAAGCGAG | 0.0442
CGGGTTTA | 0.0278
AATCGAAC | -0.024
CATTGGAA | -0.105
GCGGTACA | 0.305
ACACTTCC | 0.349
ACCCTACT | 0.269
CAAACCCA | 0.0815
AACTAGTA | -0.029
AGGCGGGC | -0.0488
CACAGTCC | -0.203
AGACAAGA | -0.0558
AGCCGGCG | -0.0309
GCAGAAAA | -0.0246
AAAACGTG | -0.0701
TGGACCAA | 0.0846
CACATTCC | -0.0465
TCCCAACA | 0.0778
GCGTTCTA | -0.0248
ATCGCCTG | -0.243
GATAAGAA | -0.169
AGTGTCGC | 0.415

Sequence | binding signal [E-score]
AAAGAGCT | -0.197
CACCCAGA | 0.189
CTAAACTC | -0.122
TAAGCTCA | -0.112
CAAACACA | 0.19
AATATAAA | -0.149
AGAATTGG | -0.136
CGGCTCGC | -0.107
GCGCCGAC | -0.177
CGTCACCA | -0.0977
CGAGATAC | 0.116
ACGCTTCA | -0.00284
CGTCTAAC | 0.0446
AATGGACA | 0.174
ACATCCAC | 0.126
GCATTGGA | -0.0285
ACTGATTG | -0.133
TAGACCAA | -0.2
CAGAGTAC | 0.0765
TTTCGAAA | -0.235
ACTTTCTC | -0.15
ACGGTTTC | 0.0861
CACCGGCA | 0.31
CCAAGGTC | -0.086
CCATGGGG | 0.104

Sequence | binding signal [E-score]
CGGCTACC | 0.0213
CTGAATGC | -0.132
GCTACGAC | 0.0388
CAGCTTAC | -0.0217
CCTATTAC | 0.106
ATACCCCA | 0.254
TCAGGAGA | -0.192
GACCGCGA | -0.169
CCATTGTC | -0.00191
GATGTGAA | -0.06
CACTTCTG | 0.196
CTCTTCCC | -0.0953
CCTCGGTC | 0.0818
ACTCCTCA | 0.0792
ACAATGAG | -0.00341
GGATGACA | 0.115
CTCTAGAG | -0.19
CCACGGCC | -0.151
GCTCTTGA | -0.149
CACCGCGA | 0.238
TAGAAAGA | 0.0445
ACATCGAA | -0.206
CTCCATGA | -0.016
GGAGTTTA | 0.0359
ACTGCATC | -0.00194

Sequence | binding signal [E-score]
ATGTTGCA | -0.0583
CTGATTGC | -0.103
AGCTAAAC | -0.173
AGGATTGA | -0.166
CTCCAGTC | 0.0567
GTGAGATA | 0.0583
AACATTAT | -0.0607
ACGGTTAC | 0.0514
AACTCCCT | -0.0497
CTTGGTGC | 0.143
AAAGGGGG | 0.233
GCGACACC | 0.487
GGTTCAGA | -0.104
AGTAGACA | 0.135
CCGTGCAA | 0.06
CTTATCCA | -0.0784
GCGCACAA | -0.0259
ATTCTATC | -0.122
AGAAGAAG | -0.186
GAATCAAC | -0.0746
CGCGTCCA | -0.0696
ATACTACG | -0.0539
GACAGCAA | -0.255
AATGCCGG | -0.111
GGACGGAA | -0.204

Sequence | binding signal [E-score]
CCGGAAGA | -0.0112
CGCCACCC | 0.19
CCCGTTTC | 0.123
GACGGGTA | 0.00861
CCGAAGGC | -0.0854
CGTTTCGA | -0.0232
AGACGAAA | -0.331
ATTGCAAC | -0.0256
CTCTAGGA | -0.228
AACAGTCC | -0.225
AAGACCCT | 0.0172
ACCCATTA | -0.00306
AGAAGGTA | 0.0104
GAATAGAA | -0.168
AGATATTC | -0.0856
AAGAACCT | -0.0404
CCCACGTA | -0.0421
CACCCGGG | 0.327
AACTTTCT | -0.18
AGTACTCG | 0.018
GGCAGACC | -0.185
GCGCAACC | 0.0525
CCGACTAC | 0.0424
ACCAGTTG | 0.119
ACGGGCGA | -0.0281

Sequence | binding signal [E-score]
AAAGCCAC | -0.355
AGGCCCGA | -0.131
CGTCTCGC | 0.0333
ATGCCGGG | -0.0554
CTCACCAA | -0.00298
TCGATGCA | -0.0578
CGAATTGA | -0.0216
AGACTTTC | -0.242
CCTACTGA | 0.0318
ATATATAG | -0.145
GAACCGTA | -0.239
CCCGTTGA | -0.0997
AATGGTCA | -0.0187
CCTGGACG | 0.0741
GTTTCCTA | -0.0509
AGCAATCG | 0.00404
CGGTCCCA | -0.0587
ACGCCTAT | 0.13
AATGTGGC | -0.272
CTGGTTGC | -0.00346
CATTAGAG | -0.136
CACAAAGA | 0.0749
AAGGTTAC | -0.046
TATCGGAA | -0.0381
GTTCAGCA | -0.0113

Sequence | binding signal [E-score]
CCCACCCA | 0.204
CTCAAACC | -0.195
CATACGCG | -0.0113
AAGTGCCT | -0.176
AGTTGAAA | -0.0977
CATCCGAG | -0.0249
AGACCGCT | -0.21
GATTTACA | 0.0536
CACATTTC | 0.186
AGCCAGCT | -0.0564
AATTCTTG | -0.215
CACTTTGG | 0.13
ACAATAGT | -0.0786
TTACCTAA | -0.0536
AGCATGAT | -0.149
AGGGCTGG | -0.0531
CTCGATGC | -0.135
GAATCTCA | -0.0599
TATAACGA | -0.0935
TAGATCGA | -0.253
CCCCCGCG | 0.272
CGTCAGCC | -0.0293
GGTCATCA | 0.044
CGGTGTCC | 0.489
CTTACCGA | -0.218

Sequence | binding signal [E-score]
AGCCGCGC | -0.202
AAGACAGC | -0.123
CATAGCCA | -0.229
GAATGAGA | -0.134
CACGTGAA | 0.121
GGTAGCAA | -0.146
CTCCAGTA | -0.151
GCCTCACA | 0.0219
AAGTGCGC | -0.0909
AGAATAAG | -0.0682
ATTCTTCA | -0.27
AAGGACGT | 0.0327
CAGTATTC | -0.0847
GTTTTGGA | 0.089
ACCCAGGC | 0.162
AGTTGCCG | 0.00696
ACATACCG | 0.148
GAAACTTA | -0.161
CGCAAGTC | 0.0342
ACGAACAA | -0.0264
ACGATTAG | 0.0335
CCGCGCGG | 0.172
CCATGCTA | -0.131
ACCCAAAA | 0.0852
AACGACAT | -0.0988

Sequence | binding signal [E-score]
AGGCGCGC | -0.186
ATACGGTA | 0.0274
ACAGCACA | 0.0958
ATCTTGTG | 0.0962
AGGAGGCG | -0.113
GACTGATC | -0.249
AAGTAGCG | -0.103
CACGTAAA | 0.048
CTATCCCA | -0.0134
ATATACGA | -0.0794
ACAGGATG | 0.013
CTGGGGGA | 0.0206
GAATAATA | 0.0723
GGGATTGA | -0.139
GATTAAGA | 0.000705
CGGCGCTC | -0.0795
ACGTCCTA | -0.165
GAATCACC | -0.107
CACACAAG | 0.0217
TCTGTAAA | -0.113
ACCAGCTA | -0.0338
CGTGATAG | 0.0429
ATGTAAAA | -0.223
CTGACATA | -0.202
CATTACTA | -0.241

Sequence | binding signal [E-score]
GTGCGACA | 0.137
CTCGTATA | -0.00683
GATTGAGC | -0.259
GAGCCCGC | -0.0533
GACACGCA | 0.416
CATGGACA | 0.216
ATGGCTGC | -0.109
TACCTAAA | 0.0177
AGGCGATG | -0.11
CTTCGCGA | -0.0347
ATGGACAC | 0.419
GCACCGAA | 0.156
ACCAAGGG | 0.0725
ATCCAAAG | -0.0931
CCACAAAC | -0.141
GCATACCA | -0.00817
GCAGGTCA | -0.123
GCTTGCCA | -0.386
CCGCGCGA | -0.1
TACTACTA | 0.149
GTCGTCGA | -0.224
CCTGAAGC | -0.0924
GTTTGGCA | -0.224
GATATTCC | 0.0355
AAAGTTAG | 0.0271

Sequence | binding signal [E-score]
CCACCGCA | -0.0604
GATGCAGC | -0.309
ACAAATCC | -0.0739
AAAGTCGT | -0.11
CGGCTAAC | -0.106
AGGATAAT | 0.142
GGCGAGTA | -0.0111
TCCCTGAA | 0.077
TAGAACGA | -0.0274
AGCTTTTC | -0.211
GACAACAA | -0.109
CGTTTACC | -0.065
GTTGTTGA | -0.00187
ATGACACG | 0.449
CCACTGGA | 0.206
TTAAACAA | -0.159
CAGCTGAA | -0.00674
TAAGTACA | 0.148
CTCAACTA | -0.101
CAAATATG | -0.0951
AAATTATT | -0.269
CCAGGAAG | -0.111
CGTAAGTC | 0.0152
AGCGACGC | 0.0076
GAAACCGC | 0.0761

Sequence | binding signal [E-score]
AGTACGCC | 0.0535
ATAGTTGC | -0.251
AAGAAAAC | 0.0158
TAGCCATA | -0.0729
CCTATCCC | 0.0396
GTTGCGAA | -0.183
CGTTATAC | 0.0755
AGCGTGAT | -0.0159
AAACTACT | -0.0121
CGTGGGCC | -0.272
GATGGAAC | -0.218
CAAGCTTA | -0.0678
ACCGCAAT | -0.00265
CTAGCGCA | -0.154
AGAGGTTA | -0.12
ACATTATG | -0.0859
AGTTTCCG | -0.205
CATATATC | -0.067
AGCTGCCC | -0.0363

Source: publication PMC10668032
